# According to PubChem BioAssay (NCATS):
# “And” between values parts separate entries of the source, which are not always exact repeats. Equal entries are not always repeated. The list shows a part of the results. Further columns of the screen follow, without active or inactive calls. For part of these data: Compounds called inactive in the main read-out are mostly missing here. The note in brackets gives the kind of curve behind each potency; many fits are weak.
# Key:
# [1] = qHTS Assay for Lipid Storage Modulators (AID 1519); details: Drosophila S3 cells, BODIPY lipid droplet/cell ratio, laser cytometry, cells loaded with oleic acid
# In short: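 Cells seeded at 5,000 per well were treated with compounds over a concentration series and loaded with oleic acid (400 uM, as added). Lipid droplet fluorescence (488 nm excitation, 500-530 nm channel) was read by laser-scanning cytometry and normalized to 20 uM Triacsin C.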
# [2] = Nrf2 qHTS screen for inhibitors: Validation (AID 493153); details: A549 ARE-Fluc reporter, 18-24 h; AC50: CellTiter-Fluor fluorescence read, measured here: cytotoxicity CellTiter-Fluor AC50; viability change: measured here: cytotoxicity max response
# In short: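 A549 cells carrying ARE-firefly luciferase reporter, 5000 cells/well in 5% FBS OPTI-MEM, treated with compound over a concentration series for 18-24 h at 37 C. Luciferase luminescence gave Nrf2 activity; CellTiter-Fluor fluorescence gave viability.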
# [3] = qHTS drug screen for cell cycle checkpoint inhibitors in PARPi-resistant BRCA-mutant ovarian cancer cell lines. (AID 1963452); details: PEO1/OlaR viability, CellTiter-Glo luminescence, 96 h
# In short: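 PEO1, PEO4 and PEO1/OlaR ovarian cancer cells, 600 per well, exposed 96 h at 37C to a dilution series. Viability read by CellTiter-Glo luminescence, normalized to DMSO and empty wells; activity summarized as Z-AUC.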
# [4] = qHTS for identification of novel therapeutic agents for treatment of microphthalmiaassociated transcription factor (MiT) renal cell carcinoma (RCC) (AID 1963991); details: CellTiter-Glo, 48 h; for z-score: stronger effect = lower value
# In short: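 Curves over 11 concentrations were fitted to CellTiter-Glo luminescence, scaled between empty wells (0%) and DMSO (100%) viability. Cells were UOK109, UOK124 and UOK145 TFE3-fusion RCC lines at 500/well, exposed 48 hours at 37 C.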
# [5] = qHTS Assay for Modulators of Human Peripheral Myelin Protein 22 (PMP22) Expression/Activity (AID 1967); details: Cell-based PMP22 reporter, dual-color luciferase ratio; measured here: red reporter channel AC50; EF-alpha promoter control reporter in MSC80 mouse Schwann cells
# In short: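 MSC80 mouse Schwann cells stably carrying Pmp22 promoter–green click beetle luciferase plus EF-alpha–red luciferase control were dosed for 24h at 37 °C. Dual-colour luminescence was filter-overlap corrected; %Activity came from green/red ratio versus untreated cells.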
# [6] = measured here: cell count channel max response
# [7] = measured here: cell number channel AC50
# [8] = measured here: lipid (BODIPY) channel AC50
# [9] = measured here: lipid channel max response
# [10] = TFE3-RCC UOK109 viability, measured here: UOK109 Z-AUC
# [11] = TFE3-RCC viability, measured here: UOK124 Z-AUC
# [12] = TFE3-RCC viability, measured here: UOK145 Z-AUC
# [13] = TFE3-RCC viability, measured here: UOK145 cell viability
# [14] = TFE3-RCC viability, measured here: UOK124 cell viability
# Tags give direction and shape of the fitted curve.
structure (smiles),measurement,setting,value
COc1ccc2c(c1OC)C(=O)O[C@@H]2[C@H]1c2c(cc3c(c2OC)OCO3)CCN1C,max response,[1]; [6],99.9% and 100%
same,AC50,[1]; [7],"4.47 µM [rising, partial curve] and 8.91 µM [rising, partial curve]"
same,AC50,[1]; [8],"4.47 µM [rising, partial curve] and 11.2 µM [rising, partial curve]"
same,max response,[1]; [9],129% and 134%
same,AC50,[2],"16.4 µM [falling, partial curve]"
same,viability change,[2],-34.3%
same,AC50,[3]; measured here: PEO1 parental viability,"15.5 µM [falling, single point]"
same,AC50,[3]; measured here: PEO4 viability,"21.9 µM [falling, single point]"
Cc1ccc(NC(=O)c2cccc(N(C)C)c2)cc1NC(=O)c1ccc(O)cc1,max response,[1]; [6],100%
same,AC50,[1]; [7],"11.2 µM [rising, partial curve]"
same,AC50,[1]; [8],"4.47 µM [rising, partial curve]"
same,max response,[1]; [9],135%
same,z-score,[4]; [10],0.772
same,z-score,[4]; [11],0.775
same,z-score,[4]; [12],-0.323
same,AC50,[4]; [13],"4.69 µM [falling, full curve]"
N#CC(C#N)=C(N)/C(C#N)=C/c1ccc(O)cc1,max response,[1]; [6],-31%
same,AC50,[1]; [7],"0.398 µM [falling, full curve, poor fit]"
same,AC50,[1]; [8],"4.47 µM [falling, partial curve, poor fit]"
same,max response,[1]; [9],-51.6%
same,AC50,[5],"75.7 µM [falling, single point]"
COCCCCC(=NOCCN)c1ccc(C(F)(F)F)cc1,max response,[1]; [6],85.2%
same,AC50,[1]; [7],"12.6 µM [rising, partial curve]"
same,AC50,[1]; [8],"12.6 µM [rising, partial curve]"
same,max response,[1]; [9],112%
same,z-score,[4]; [10],-0.235
same,z-score,[4]; [11],-0.164
same,AC50,[4]; [14],"14.8 µM [falling, partial curve]"
same,z-score,[4]; [12],-0.321
same,AC50,[4]; [13],"20.9 µM [falling, partial curve, poor fit]"
CC1(C)NC(=O)N(c2ccc([N+](=O)[O-])c(C(F)(F)F)c2)C1=O,max response,[1]; [6],-29% and 66.8%
same,AC50,[1]; [7],"12.6 µM [rising, full curve]"
same,AC50,[1]; [8],"14.1 µM [falling, single point] and 10 µM [rising, partial curve, poor fit]"
same,max response,[1]; [9],-35.4% and 66.1%
same,viability change,[2],2.86%
same,z-score,[4]; [10],1.29
same,z-score,[4]; [11],-0.0654
same,z-score,[4]; [12],0.00214
Nc1ccc(-c2ccc3ccccc3n2)cc1,max response,[1]; [6],-34.3%
same,AC50,[1]; [7],"20 µM [falling, full curve, poor fit]"
same,AC50,[1]; [8],"20 µM [falling, full curve, poor fit]"
same,max response,[1]; [9],-33.3%
same,AC50,[5],"84.9 µM [falling, single point]"
CCOC(=O)c1cnc2c(cnn2CC)c1NN=C(C)C,max response,[1]; [6],110% and 62.1%
same,AC50,[1]; [7],"1.26 µM [rising, full curve, poor fit]"
same,AC50,[1]; [8],"1.26 µM [rising, full curve, poor fit]"
same,max response,[1]; [9],147% and 64%
same,AC50,[5],"75.7 µM [falling, partial curve]"
O=c1c(O)c(-c2ccc(O)c(O)c2)oc2cc(O)ccc12,max response,[1]; [6],-36.9%
same,AC50,[1]; [7],"31.6 µM [falling, single point]"
same,AC50,[1]; [8],"39.8 µM [falling, single point]"
same,max response,[1]; [9],-32.8%
same,z-score,[4]; [10],0.239
same,z-score,[4]; [11],0.438
same,AC50,[4]; [14],"29.6 µM [falling, single point]"
same,z-score,[4]; [12],0.236
same,AC50,[4]; [13],"20.9 µM [falling, single point]"
CC1=C(CC(=O)O)c2cc(F)ccc2/C1=C\c1ccc(S(C)=O)cc1 (configuration not stated),max response,[1]; [6],96.8% and 17.3% and -19.7%
same,AC50,[1]; [7],"31.6 µM [rising, partial curve, poor fit] and 15.8 µM [falling, single point]"
same,AC50,[1]; [8],"31.6 µM [rising, partial curve, poor fit] and 11.2 nM [rising, full curve, poor fit] and 15.8 µM [falling, single point]"
same,max response,[1]; [9],126% and 34% and -21.9%
same,AC50,[5],"84.9 µM [falling, single point]"
CN1CCc2ccccc2Cc2[nH]c3ccccc3c2CC1,max response,[1]; [6],113% and 33.6%
same,AC50,[1]; [7],"4.47 µM [rising, full curve]"
same,AC50,[1]; [8],"5.01 µM [rising, full curve] and 44.7 µM [rising, single point]"
same,max response,[1]; [9],143% and 35.5%
same,AC50,[5],"84.9 µM [falling, single point]"
COc1ccccc1N1CCN(CCCNc2cc(=O)n(C)c(=O)n2C)CC1,max response,[1]; [6],26.5% and 68.4%
same,AC50,[1]; [7],"31.6 µM [rising, partial curve, poor fit]"
same,AC50,[1]; [8],"31.6 µM [rising, single point] and 15.8 µM [rising, partial curve, poor fit]"
same,max response,[1]; [9],46.6% and 68.8%
same,AC50,[5],"84.9 µM [falling, single point]"
